In US20190062448A1, “ANTI-CD39 ANTIBODIES, COMPOSITIONS COMPRISING ANTI-CD39 ANTIBODIES AND METHODS OF USING ANTI-CD39 ANTIBODIES” (Tizona Therapeutics, priority 2017, published 2019):
Positions count from the first letter of the chain named. “Also recorded” adds a separate entry of the source. Each block holds one molecule with its values, some of them ahead of it.

Tests used:
[1] = target: T1, recombinant human CD39 extracellular domain (rhCD39-ECD-His) (Homo sapiens, UniProt P49961); assay: Binding kinetics to recombinant CD39 ECD by biolayer interferometry (Octet)
T1 construct: His (C); purchased R&D Systems
T1 sequence (P49961 38-478 limits assumed): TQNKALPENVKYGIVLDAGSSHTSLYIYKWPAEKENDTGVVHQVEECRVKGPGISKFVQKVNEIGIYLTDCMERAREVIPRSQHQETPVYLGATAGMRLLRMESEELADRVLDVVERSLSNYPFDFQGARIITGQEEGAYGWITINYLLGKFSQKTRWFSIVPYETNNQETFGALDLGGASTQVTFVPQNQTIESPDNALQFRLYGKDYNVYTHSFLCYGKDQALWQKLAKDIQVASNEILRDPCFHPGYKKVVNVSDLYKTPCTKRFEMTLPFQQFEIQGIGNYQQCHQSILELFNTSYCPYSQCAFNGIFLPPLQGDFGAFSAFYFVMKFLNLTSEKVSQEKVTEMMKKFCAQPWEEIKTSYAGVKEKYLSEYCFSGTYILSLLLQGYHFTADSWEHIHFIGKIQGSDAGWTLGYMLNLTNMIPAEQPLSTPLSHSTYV
From the text: FIG. 1 provides a table showing monovalent affinity of anti-huCD39 antibodies to recombinant human CD39 extracellular domain. The table provides binding kinetics of anti-CD39 antibodies interacting with soluble recombinant human CD39 (ENTDP1) extracellular domain (ECD) by biolayer interferometry (ForteBio Octet). Anti-CD39 antibodies were captured on an anti-human Fc sensor and exposed to recombinant human CD39 ECD at concentration ranging from 10-300 nanomolar. The kinetic data was globally fit with a simple 1:1 Langmuir binding model to yield on-rate (kon) and off-rate (koff) values. The equilibrium dissociation constants (KD) were calculated from the kon and koff values.
Binding kinetics were measured using the Octet Red96 system (ForteBio) at 25° C. in running buffer (1× Pall ForteBio Kinetics Buffer diluted into PBS or Tris pH 7.4). In brief, 1.25 mg/ml of unlabeled anti-hCD39 antibodies were immobilized onto anti-human Fc sensors. After a short baseline step in running buffer, the sensors were exposed to varying concentrations (10-300 nM) of rhCD39-ECD-His (R&D Systems) for the association step. Dissociation of the complex was monitored upon exposure of the sensors to running buffer once again. […] KD was calculated from the ratio of kd to ka.
PF=poor fit. […] The equilibrium dissociation constants (KD) were calculated from the kon and koff values.

[2] = target: T2, human CD39 on CHO CD39 cells (Homo sapiens, UniProt P49961); assay: Binding to CHO cells expressing human CD39 (flow cytometry)
T2 construct: expressed in transfected cells; host or cells: Chinese Hamster Ovary K1 (CHO)
T2 sequence (P49961 1-510): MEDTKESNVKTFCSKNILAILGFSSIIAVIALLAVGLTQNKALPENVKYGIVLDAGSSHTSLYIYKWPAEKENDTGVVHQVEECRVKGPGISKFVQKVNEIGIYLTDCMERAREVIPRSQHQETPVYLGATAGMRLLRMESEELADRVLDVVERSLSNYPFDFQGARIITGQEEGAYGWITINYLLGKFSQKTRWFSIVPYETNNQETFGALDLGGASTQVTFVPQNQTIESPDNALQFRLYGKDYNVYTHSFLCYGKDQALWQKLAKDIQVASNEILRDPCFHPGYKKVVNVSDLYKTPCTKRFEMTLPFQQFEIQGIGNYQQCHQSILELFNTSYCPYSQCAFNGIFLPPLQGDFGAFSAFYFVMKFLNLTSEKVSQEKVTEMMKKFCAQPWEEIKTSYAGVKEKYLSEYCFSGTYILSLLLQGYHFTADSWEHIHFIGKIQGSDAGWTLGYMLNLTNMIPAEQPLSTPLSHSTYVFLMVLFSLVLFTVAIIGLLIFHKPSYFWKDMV
Procedure: Binding of anti-CD39 IgGs to Chinese Hamster Ovary K1 (CHO) CD39 cells. 100 nanomolar IgGs (each antibody is indicated as a unique clone number in the FIG.) were incubated at 25° C. for 30 minutes on ice in phosphate buffered saline (PBS) with parental CHO cells or CHO cells engineered to express either human or cynomolgus macaque (Macaca fascicularis) CD39 (CHO CD39 cells). Cells were then washed with ice cold PBS and incubated with a fluorescently labeled goat-anti-human IgG for 20 minutes on ice. Cells were washed and resuspended in ice cold PBS prior to analysis by flow cytrometry. Fold over background binding levels represent the ratio of median fluorescence intensity (MFI) values for anti-CD39 antibodies binding to CHO CD39 to MFI values for anti-CD39 antibodies binding to the parental CHO cells.

[3] = target: T3, CD39 expressed on MEL-28 cells (Homo sapiens, UniProt P49961); assay: Cellular CD39 ATPase inhibition (Malachite Green), Example 15; assay type: cell-based
T3 construct: endogenous in cells; host or cells: MEL-28
T3 sequence (P49961 1-510): T2 sequence (P49961 1-510)
Procedure: Indicated cells were incubated in assay buffer with 10-25 μg/ml antibody, 100 μM POM-1 or 100 μM ARL for 30 min at 37° C. 5% CO2. ATP was added to a final concentration of 50 μM and the incubation continued for 15 min. Supernatant was evaluated for free phosphate (Pi) using the Malachite Green Phosphate Detection kit. Palivizumab is used as an isotype control and POM-1 and ARL are non-specific small molecule inhibitors of CD39.
(§1) Also, an 18 hour incubation was used with the antibody or isotype control. Finally, an additional 30 second baseline dip in buffer between antigen capture and dipping into a second competitor antibody for 300 seconds was used.

[4] = target: T4, hCD39-ECD (Homo sapiens, UniProt P49961); assay: rhCD39-ECD ATPase inhibition (Malachite Green free phosphate); assay type: biochemical; design: purchased R&D Systems; conditions: 50 μg/ml antibody; 10 μM ATP; vs isotype or buffer controls
T4 sequence (P49961 38-478 limits assumed): T1 sequence (P49961 38-478 limits assumed)
Procedure: 0.04-3.3 nM rhCD39-ECD (R&D Systems) was incubated with buffer, 50 μg/ml antibody or 100 μM POM-1 (Alpha Aesar) for 1 hr at 37° C. in assay buffer (25 mM Tris pH 7.5, 5 mM CaCl2) at which point ATP (Sigma) was spiked in to a final concentration of 10 μM, and the reaction further incubated for 30 min 37° C. Production of free phosphate (Pi) was subsequently measured using Malachite Green Phosphate Detection kit (R&D Systems).
as §1

[5] = target: T5, human-mouse CD39 chimeras (Homo sapiens, UniProt P49961, D150A/E143Q/E153S/L144S/N158S/R147E/R154T/S157K/V151A); assay: Binding to human-mouse CD39 chimeras and point mutants expressed in CHO cells (FACS); conditions: 15 μg/ml antibody
T5 construct: expressed in transfected cells; host or cells: CHO cells
T5 sequence (P49961 1-510 E143Q/L144S/R147E/D150A/V151A/E153S/R154T/S157K/N158S): T2 sequence (P49961 1-510) with E143Q, L144S, R147E, D150A, V151A, E153S, R154T, S157K, N158S
Procedure: Chimeras were generated by replacing human CD39 with mouse CD39 sequence in mammalian expression vectors. The chimeras were expressed in CHO cells and the ability of anti-human CD39 antibodies to bind the chimeras tested via FACS. In brief, cells were washed and blocked in FACS buffer (PBS/2% FBS) for 30 min on ice. They were then incubated with 15 μg/ml anti-human CD39 antibodies diluted in FACS buffer×1 h on ice. After 2 washes, cells were incubated with fluorescently labeled anti-human Fc antibodies, anti-mouse Fc antibodies, or anti-mCD39 antibody (R&D Systems 495826) diluted in FACS buffer per manufacturers' instructions×30 min on ice. After 2 washes, cells were resuspended in FACS buffer and analyzed on BD Fortessa. Data was processed with FlowJo. Positive binding was scored as “yes” and lack of binding was scored as “NO” and examples of FACS plots used to generate this table are in FIGS. 14.F and 14.G.
Chimeras were generated by mutagenesis of Chimera #2 or WT hCD39 expression vectors. Residues for mutagenesis were chosen based on divergence between human and mouse CD39. The chimeras were expressed in CHO cells and the ability of anti-human CD39 antibodies to bind the chimeras tested via FACS, as described in FIG. 14E. Table 2. Positive binding was scored as “Yes” and lack of binding was scored as “No” and examples of FACS plots used to generate this table are in FIGS. 14.F and 14.G.

inhibition of ATPase activity of CD39 expressed on MEL-28 cells ([3]; 10-25 μg/ml antibody, 50 μM ATP, vs isotype control): unable to inhibit
B1: 27549: anti-hCD39 antibody that inhibits ECD ATPase activity but not cellular CD39; separate bin (antibody)
heavy: QVQLVESGGGVVQPGRSLRLSCAASGFTFSSYGMNWVRQAPGKGLEWVAVIWYDGSNKYYADSVKGRFTISRDNSKNTLYLQMNSLRAEDTAVYYCARDLGGYSYGEPYYYYYGMDVWGQGTTVTVSSASTKGPSVFPLAPCSRSTSESTAALGCLVKDYFPEPVTVSWNSGALTSGVHTFPAVLQSSGLYSLSSVVTVPSSSLGTKTYTCNVDHKPSNTKVDKRV[human IgG4 Fc with S228P (EU numbers) left out here]
light: EIVLTQSPGTLSLSPGERATLSCRASQSVSSDYLAWYQQKPGQAPRLLIYGASSRATGIPDRFSGSGSGTDFTLTISRLEPEDFAVYYCQQAHSSPYTFGGGTKVEIKRTVAAPSVFIFPPSDEQLKSGTASVVCLLNNFYPREAKVQWKVDNALQSGNSQESVTEQDSKDSTYSLSSTLTLSKADYEKHKVYACEVTHQGLSSPVTKSFNRGEC
modifications: Synthetic HC, 27549; Synthetic LC, 27549
notes: separate bin
binding to soluble recombinant human CD39 ECD (in words) [1]: can bind ECD and cellular CD39; also recorded: binds both ECD (FIG. 1) and cells well
binding to cellular human CD39 (in words) [2]: can bind ECD and cellular CD39; also recorded: being able to bind to CD39 expressed on cells; also recorded: binds both ECD (FIG. 1) and cells well
inhibition of cellular CD39 ATPase activity ([3]; cell line not given): does inhibit cellular CD39; also recorded: can only inhibit ECD ATPase activity
inhibition of ATPase activity of soluble hCD39 ECD (μM Pi) [4]: able to inhibit the hydrolysis of ATP by hCD39 ECD; also recorded: directly inhibit the ATPase activity of sol CD39 ECD; also recorded: can only inhibit ECD ATPase activity

binding to Chimera #2 (human E143-N158 replaced by mouse sequence) [5]: inability to recognize Chimera #2
B2: 31418: inhibitory anti-CD39 antibody, contacts E143-N158 incl. D150 and E153 (antibody)
heavy: QVQLVQSGAEVKKPGASVKVSCKASGYTFKSYEMHWVRQAPGQGLEWMGRINPSGGSTWYAQKFQGRVTMTRDTSTSTVYMELSSLRSEDTAVYYCARGKREGGTEYLRHWGQGTLVTVSSASTKGPSVFPLAPCSRSTSESTAALGCLVKDYFPEPVTVSWNSGALTSGVHTFPAVLQSSGLYSLSSVVTVPSSSLGTKTYTCNVDHKPSNTKVDKRV[human IgG4 Fc with S228P (EU numbers) left out here]
light: EIVLTQSPGTLSLSPGERATLSCRASQSVSSSYLAWYQQKPGQAPRLLIYGASSRATGIPDRFSGSGSGTDFTLTISRLEPEDFAVYYCQQYYFYITFGGGTKVEIKRTVAAPSVFIFPPSDEQLKSGTASVVCLLNNFYPREAKVQWKVDNALQSGNSQESVTEQDSKDSTYSLSSTLTLSKADYEKHKVYACEVTHQGLSSPVTKSFNRGEC
modifications: Synthetic HC, 31418; Synthetic LC, 31418
notes: D150 and E153
